According to the supplement of paper PMC3334620:
Whole data set: some 33,000 sequences, median “E-score (-0.5 to 0.5)” near -0.012, cut for the highest 2% near 0.27. This is one part of the list.

biological target: T1, Vhr1 (UniProt P40522); assay: PBM E-score (8-mer binding enrichment) (E-score (-0.5 to 0.5)); higher = stronger / more preferred TF binding; most listed sequences are background and not binding sites; conditions: protein concentration: 200 nM; construct: GST-full length
T1 sequence: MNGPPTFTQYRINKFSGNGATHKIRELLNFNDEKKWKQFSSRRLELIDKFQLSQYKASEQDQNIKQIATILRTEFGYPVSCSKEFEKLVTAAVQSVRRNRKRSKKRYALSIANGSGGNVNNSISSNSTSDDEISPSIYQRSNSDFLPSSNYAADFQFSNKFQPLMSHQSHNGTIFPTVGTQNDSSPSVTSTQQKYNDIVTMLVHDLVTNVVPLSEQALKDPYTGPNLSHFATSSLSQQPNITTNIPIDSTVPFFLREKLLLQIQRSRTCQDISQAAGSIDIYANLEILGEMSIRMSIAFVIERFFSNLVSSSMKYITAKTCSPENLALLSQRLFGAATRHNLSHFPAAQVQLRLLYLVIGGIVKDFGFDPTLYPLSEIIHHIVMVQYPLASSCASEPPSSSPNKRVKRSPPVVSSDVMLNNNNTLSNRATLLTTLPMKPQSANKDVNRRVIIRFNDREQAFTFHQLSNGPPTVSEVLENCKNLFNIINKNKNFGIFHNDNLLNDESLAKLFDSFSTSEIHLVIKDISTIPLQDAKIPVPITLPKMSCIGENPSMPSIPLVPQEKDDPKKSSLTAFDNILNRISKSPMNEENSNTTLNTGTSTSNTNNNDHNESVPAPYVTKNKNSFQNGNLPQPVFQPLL
Protocol: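 Universal 'all 10-mer' protein binding microarrays (Agilent AMADID 015681) probed with GST-tagged S. cerevisiae TFs (full-length or DBD) made by in vitro transcription/translation (PURExpress), about 100-200 nM. Bound TF was detected with fluorescent anti-GST. Each ungapped 8-mer (which stands for itself and its reverse complement) is scored by the PBM enrichment score (E-score), a modified Wilcoxon-Mann-Whitney statistic from -0.5 to +0.5, computed with the Universal PBM Analysis Suite. Scale: above 0.35 generally sequence-specific binding.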

Row | Sequence | PBM E-score
1 | ACTGCCAA | 0.175
2 | AGGAGAAT | -0.0556
3 | AGAATATC | -0.0545
4 | ACGAACGA | 0.00214
5 | AGTAGGCG | -0.036
6 | CTATAGTA | 0.0768
7 | CAACTCGA | 0.0405
8 | ACGACTGA | 0.123
9 | CGCCATGA | 0.171
10 | TACTGTAA | -0.00637
11 | ATTGTCTC | -0.0333
12 | TGAAACCA | 0.0959
13 | ATCCTTGA | -0.0054
14 | CGAGATGC | -0.00486
15 | ACCCTCAA | -0.107
16 | GGGACCCA | 0.0966
17 | AATTTCCG | -0.108
18 | ATATCAGG | -0.239
19 | ATTTCAAA | -0.276
20 | CACGCGCA | 0.0157
21 | AATAGCTG | 0.0192
22 | GGTGGGAA | 0.04
23 | CCTCCGCC | -0.106
24 | GAATGCGA | 0.0442
25 | CTATCCAG | -0.116

Row | Sequence | PBM E-score
26 | AGTAGCTA | 0.00862
27 | AGCATACA | -0.0103
28 | GGTAGCAC | -0.107
29 | GTTTCGGA | -0.0898
30 | AGGCCGTG | 0.0612
31 | AAGTAATT | -0.197
32 | ATTATTTC | -0.00699
33 | CCTCCCAG | -0.166
34 | CACAACGC | 0.134
35 | AGCCTTAT | -0.0675
36 | GGGATCAA | -0.109
37 | GACGGACA | 0.0577
38 | CGGTGGAG | 0.0843
39 | CTCAAGCC | 0.00694
40 | GAGAGAGC | -0.139
41 | CGGCCGAA | 0.185
42 | ATGGACCA | 0.0163
43 | AATCTAAT | -0.177
44 | CGGCGGAA | -0.00749
45 | GTGTGTTA | 0.278
46 | ATCCGTGC | 0.05
47 | CGCGCAAC | 0.0746
48 | AAATGGGG | -0.0546
49 | ATAGGACA | -0.0209
50 | CCACGTTA | 0.0119

Row | Sequence | PBM E-score
51 | ACTATCCA | 0.099
52 | CTAGAGTA | 0.0294
53 | ATCAATAG | -0.0349
54 | CTCCCTCA | -0.11
55 | AACCCTTC | 0.0451
56 | AATTCGTC | -0.0585
57 | ACACCAGT | 0.0743
58 | AGAACCCA | 0.0152
59 | GCCCTGGA | -0.101
60 | CCCGATGC | -0.18
61 | ACACAAAC | -0.0255
62 | GCACTGAC | 0.0316
63 | GAGGACCA | 0.0256
64 | TATTTGGA | -0.196
65 | GGCTATGA | 0.0249
66 | CATAGGAA | -0.255
67 | CCCAGACA | -0.0129
68 | CCACGAGA | -0.145
69 | AGTCCTCC | 0.0948
70 | ATTCTAAA | -0.135
71 | CCAGCCGC | 0.227
72 | AGATTAAA | 0.0709
73 | CCATTGAC | 0.0516
74 | TCCGTTCA | -0.221
75 | AGAGTACG | -0.088

Row | Sequence | PBM E-score
76 | ATGTTAAT | 0.0826
77 | GAGGGACA | 0.00909
78 | ATCGGAGC | -0.049
79 | ATAAGGGA | -0.137
80 | AACGTAAT | -0.0132
81 | AGGCTCGC | 0.0638
82 | CGAAGGAA | -0.0766
83 | AGGCGCCG | 0.0289
84 | AGTGTTAC | -0.0469
85 | ACCGCATG | 0.0669
86 | ACGCTTGA | -0.0784
87 | ATTACCTG | -0.12
88 | CCGCAGCA | 0.0345
89 | CTTTTAAA | -0.317
90 | AAGGCCGT | -0.148
91 | CATGCTCG | 0.129
92 | CAAAGGGC | 0.0988
93 | ATGGGACG | -0.0961
94 | AAATGGCA | -0.0189
95 | GTAGTATA | 0.217
96 | AAGGCTTA | -0.209
97 | CAAAGTGA | 0.0453
98 | CAACCCCA | 0.06
99 | CAGACACC | 0.0912
100 | AGTTTGAT | 0.0522

Row | Sequence | PBM E-score
101 | CTAGTCCA | -0.00673
102 | CCCGACCG | -0.0249
103 | GAATCGGA | 0.139
104 | GGCAACGA | 0.00983
105 | ACGATACG | -0.149
106 | CGGTCTCC | -0.0871
107 | CGAAGGGA | 0.093
108 | ATAAAGGC | -0.282
109 | ACCCGTAC | 0.0748
110 | AGAACTCA | 0.037
111 | AGTAGTGG | 0.135
112 | CGGGTCTA | 0.0285
113 | ACTGACCC | 0.0589
114 | AGGCGGGC | 0.118
115 | ACATGTCA | 0.0414
116 | AATTAGAA | -0.0829
117 | TAGGATCA | 0.0683
118 | AACGCGAG | 0.0573
119 | GACACTTA | -0.0355
120 | GCTGCAGA | 0.0309
121 | ATGTCAAA | -0.172
122 | AAACACTT | -0.172
123 | GCCCCGGA | 0.0718
124 | GCAACCCA | 0.0849
125 | ACACGCAA | 0.124

Row | Sequence | PBM E-score
126 | CCAAACCA | -0.0717
127 | GGCGCACC | 0.0793
128 | AGACGTAT | -0.0316
129 | AGTGATCA | 0.151
130 | GTTATTAA | -0.0935
131 | AACTGCAG | -0.111
132 | AGGAAAGC | -0.169
133 | ACTAAAGT | -0.0442
134 | CGACAATC | 0.0993
135 | CCCCGTCA | 0.0329
136 | ACGTATAA | 0.0234
137 | ACCCCTAG | -0.00022
138 | ATTCCAGC | -0.0337
139 | AGTCTTCC | 0.203
140 | CGGATGCA | -0.289
141 | GGTGAGAC | 0.044
142 | GAATTTGC | -0.0954
143 | CTTGAAGC | -0.296
144 | GAACTCAC | 0.151
145 | ATAGGCGC | -0.24
146 | CCGCGGAA | -0.0813
147 | CCCGGACC | 0.0207
148 | CACCGTGC | 0.0956
149 | ATGTTCCC | 0.137
150 | AACTGCAA | -0.0197

Row | Sequence | PBM E-score
151 | CTACGAAA | -0.208
152 | CATAAAGA | -0.0719
153 | AGCACCAC | -0.0194
154 | GCCGTGCC | -0.0466
155 | TCAGTACA | 0.00165
156 | AATACCGT | 0.0598
157 | CTCTGACA | -0.0344
158 | GCGCTACC | -0.211
159 | AAGAAGCA | -0.0698
160 | TTATCAAA | 0.102
161 | TATGAACA | 0.161
162 | GCGAGGCA | 0.0598
163 | AAGACGCT | -0.263
164 | ATTTAATA | -0.0341
165 | AAATGGAA | -0.257
166 | GTGAGGTA | 0.0496
167 | CAGCCACC | 0.206
168 | AGTAATAT | 0.166
169 | CTCAGACC | -0.00267
170 | CACAAAAG | -0.0041
171 | CAGGGCTC | -0.0787
172 | CGAGAAAA | -0.162
